Experimental data reported in publication PMC6057269.
These are yes or no findings as the source states them, for the method shown. Some results given as binding are weak or reduced against the parent protein; the word gives no strength. Tags and fused reporters may be left off the sequences shown.

Amino acid sequences for entries named in this document (tags omitted). A change or cut given only in a name is not applied to a line headed by its entry. Chains listed by the source or under a name are the forms on record and can include a tag or linker. Residues count along the entry.
mitochondrially targeted GFP-ITSN1 SH3d, wild type (Q15811, residues 1076-1138): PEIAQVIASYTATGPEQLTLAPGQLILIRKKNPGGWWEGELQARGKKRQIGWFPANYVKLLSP
mitochondrially targeted GFP-ITSN1 SH3d R1119E (Q15811, form named): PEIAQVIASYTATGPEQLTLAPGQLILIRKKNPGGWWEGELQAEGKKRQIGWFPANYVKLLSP

Legend:
[1] = molecular target: mitochondrially targeted GFP-ITSN1 SH3d R1119E (human) (UniProt Q15811); test: recruitment to mitochondria by a mistargeted bait (microscopy); ITSN1 SH3d mistargeted to mitochondria by the TOM20 transmembrane domain in HeLa cells; FCHSD2-FusionRed co-transfected or endogenous FCHSD2 stained; confocal imaging
[2] = molecular target: mitochondrially targeted GFP-ITSN1 SH3d, wild type (human) (UniProt Q15811); test: as above

| binding [1] | binding [2] | Binder |
| --- | --- | --- |
| no binding | binds | FCHSD2-FusionRed (protein, UniProt O94868-1 1-740) MQPPPRKVKVTQELKNIQVEQMTKLQAKHQAECDLLEDMRTFSQKKAAIEREYAQGMQKLASQYLKRDWPGVKADDRNDYRSMYPVWKSFLEGTMQVAQSRMNICENYKNFISEPARTVRSLKEQQLKRCVDQLTKIQTELQETVKDLAKGKKKYFETEQMAHAVREKADIEAKSKLSLFQSRISLQKASVKLKARRSECNSKATHARNDYLLTLAAANAHQDRYYQTDLVNIMKALDGNVYDHLKDYLIAFSRTELETCQAVQNTFQFLLENSSKVVRDYNLQLFLQENAVFHKPQPFQFQPCDSDTSRQLESETGTTEEHSLNKEARKWATRVAREHKNIVHQQRVLNDLECHGAAVSEQSRAELEQKIDEARENIRKAEIIKLKAEARLDLLKQIGVSVDTWLKSAMNQVMEELENERWARPPAVTSNGTLHSLNADTEREEGEEFEDNMDVFDDSSSSPSGTLRNYPLTCKVVYSYKASQPDELTIEEHEVLEVIEDGDMEDWVKARNKVGQVGYVPEKYLQFPTSNSLLSMLQSLAALDSRSHTSSNSTEAELVSGSLNGDASVCFVKALYDYEGQTDDELSFPEGAIIRILNKENQDDDGFWEGEFNGRIGVFPSVLVEELSASENGDTPWMREIQISPSPKPHASLPPLPLYDQPPSSPYPSPDKRSSLYFPRSPSANEKSLHAESPGFSQASRHTPETSYGKLRPVRAAPPPPTQNHRRPAEKIEDVEITLV |
| no binding | binds | FCHSD2 (endogenous, HeLa) (protein, UniProt O94868 1-740) MQPPPRKVKVTQELKNIQVEQMTKLQAKHQAECDLLEDMRTFSQKKAAIEREYAQGMQKLASQYLKRDWPGVKADDRNDYRSMYPVWKSFLEGTMQVAQSRMNICENYKNFISEPARTVRSLKEQQLKRCVDQLTKIQTELQETVKDLAKGKKKYFETEQMAHAVREKADIEAKSKLSLFQSRISLQKASVKLKARRSECNSKATHARNDYLLTLAAANAHQDRYYQTDLVNIMKALDGNVYDHLKDYLIAFSRTELETCQAVQNTFQFLLENSSKVVRDYNLQLFLQENAVFHKPQPFQFQPCDSDTSRQLESETGTTEEHSLNKEARKWATRVAREHKNIVHQQRVLNDLECHGAAVSEQSRAELEQKIDEARENIRKAEIIKLKAEARLDLLKQIGVSVDTWLKSAMNQVMEELENERWARPPAVTSNGTLHSLNADTEREEGEEFEDNMDVFDDSSSSPSGTLRNYPLTCKVVYSYKASQPDELTIEEHEVLEVIEDGDMEDWVKARNKVGQVGYVPEKYLQFPTSNSLLSMLQSLAALDSRSHTSSNSTEAELVSGSLNGDASVCFVKALYDYEGQTDDELSFPEGAIIRILNKENQDDDGFWEGEFNGRIGVFPSVLVEELSASENGDTPWMREIQISPSPKPHASLPPLPLYDQPPSSPYPSPDKRSSLYFPRSPSANEKSLHAESPGFSQASRHTPETSYGKLRPVRAAPPPPTQNHRRPAEKIEDVEITLV |
